Experimental data taken from the supplement of paper PMC12217912.
The list shows a part of the results. Sequences were assembled here from the parent chain. Inactive controls read about 0.05.

B1: TEV protease; numbered along this chain (parent)
chain: MGESLFKGPRDYNPISSSICHLTNESDGHTTSLYGIGFGPFIITNKHLFRRNNGTLVVQSLHGVFKVKDTTTLQQHLVDGRDMIIIRMPKDFPPFPQKLKFREPQREERICLVTTNFQTKSMSSMVSDTSCTFPSGDGIFWKHWIQTKDGQCGSPLVSTRDGFIVGIHSASNFTNTNNYFTSVPKNFMELLTNQEAQQWVSGWRLNADSVLWGGHKVFMVKPEEPFQPVKEATQL

Variants of: B1
Test: raw area under fraction-flipped curve 0-4 h after induction (AUC4h, not background-subtracted), DNA-recorder readout of cleavage of the substrate (dimensionless); higher = more cleavage of the substrate by the protease variant
Details: temperature: 34 °C; time window: 0-4 h after rhamnose induction
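Note: Bxb1 expression induced with 0.2% (w/v) L-rhamnose at OD600 near 0.5, cultures sampled hourly, flipped fraction per protease–substrate barcode pair counted by paired-end Illumina sequencing.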

Variant	area with substrate ENLCFQS	area with substrate ENLDFQS	area with substrate ENLEFQS	area with substrate ENLFFQS	area with substrate ENLGFQS	area with substrate ENLHFQS	area with substrate ENLIFQS	area with substrate ENLKFQS	area with substrate ENLMFQS	area with substrate ENLNFQS	area with substrate ENLPFQS	area with substrate ENLQFQS	area with substrate ENLSFQS	area with substrate ENLTFQS	area with substrate ENLVFQS	area with substrate ENLLFQS	area with substrate ENLRFQS	area with substrate ENLWFQS
N177L	0.0633	0.0612	0.072	0.0865	0.0505	0.0666	0.0972	0.0836	0.0294	0.0619	0.0717	0.0665	0.0526	0.0727	0.0941			
N177S	0.0636	0.0552	0.052	0.0671	0.0622	0.0476	0.0683	0.0657		0.0456	0.0551	0.049	0.0562			0.0607	0.0536	0.0476
M188P	0.065	0.0657	0.0642			0.0836	0.0884	0.0784		0.0826	0.0582		0.0708	0.0776				0.061
L190M	0.0834	0.0636	0.0674		0.0678	0.011		0.0794		0.0657	0.0645	0.0683			0.0809			0.0663
R204F	0.0803	0.0702	0.0622	0.0937	0.0638	0.0658	0.0898	0.0767	0.0824	0.0571	0.0556	0.0736	0.0903	0.087		0.0972	0.0707	0.0578
H215C	0.0652	0.0656	0.0789		0.0591		0.0635				0.0618		0.0541					0.0492
P222F	0.0486	0.0601	0.0627	0.075		0.0656	0.0565	0.067	0.0844	0.0629	0.05	0.0622	0.0631		0.0676	0.077	0.0574	
E223K	0.0711	0.0608	0.0585	0.0963		0.065		0.069	0.0678	0.0654	0.054	0.056	0.0587			0.068	0.0578	0.0729
F226M	0.058	0.0604	0.0582	0.0875		0.0735		0.0801		0.0611			0.0741				0.0669	
Q227L	0.0626	0.0519	0.0607	0.0836			0.0594	0.0809		0.0605	0.066	0.0652	0.0598				0.066	0.0642
V229F	0.0837	0.0685	0.0739	0.106	0.044	0.059		0.0677		0.0675	0.0486	0.0739	0.0698			0.0658	0.0705	
K230C	0.0966	0.0649	0.0363	0.0767			0.0791	0.0705	0.0674	0.0809	0.0673	0.0703			0.0972	0.0534		0.0612
K230D	0.0766	0.0633	0.0659	0.0864		0.0793	0.0834	0.0833	0.0712		0.0618	0.0677	0.0616			0.0774	0.0764	0.0782
E231C	0.0589	0.0604	0.0686	0.0902				0.0916			0.0598		0.0651		0.0559		0.0769	
E3Q		0.0548	0.0684	0.0894	0.0631	0.0587	0.123	0.0581		0.0491	0.08	0.0659					0.0638	
P9L		0.0657	0.0559	0.0858		0.062		0.0894		0.0622	0.11		0.0548		0.12	0.0812	0.0815	0.0722
R10M		0.0578	0.0708	0.0891		0.0751	0.0808	0.0729	0.0745	0.0483			0.0792				0.0669	0.057
L22E		0.0471	0.0445	0.0467		0.0455	0.0506	0.047		0.0488	0.0362	0.0561	0.0438	0.0286	0.05	0.0593	0.0442	0.0405
T30L		0.073	0.0478	0.0666		0.0826	0.14	0.0736		0.0741	0.0685		0.0621			0.0792	0.0743	0.0647
F38I		0.0703	0.0552				0.0775				0.0649	0.0468				0.0728		
H47C		0.0584	0.0603	0.0841		0.0584			0.0628	0.0663	0.0538	0.0588	0.075		0.0471		0.061	
L61H		0.0593		0.102		0.0682		0.0734	0.0765	0.0795	0.0653	0.0599	0.0778	0.0746	0.0966			
F65L		0.065	0.063	0.0859			0.0691			0.0602		0.0476					0.0713	
T71E		0.0669		0.0926	0.0658	0.0685	0.0539	0.0699		0.0686		0.0716	0.0606			0.0678	0.108	

Variant	area with substrate ENLCFQS	area with substrate ENLDFQS	area with substrate ENLEFQS	area with substrate ENLFFQS	area with substrate ENLGFQS	area with substrate ENLHFQS	area with substrate ENLIFQS	area with substrate ENLKFQS	area with substrate ENLMFQS	area with substrate ENLNFQS	area with substrate ENLPFQS	area with substrate ENLQFQS	area with substrate ENLSFQS	area with substrate ENLTFQS	area with substrate ENLVFQS	area with substrate ENLLFQS	area with substrate ENLRFQS	area with substrate ENLWFQS
M88A		0.0524	0.105	0.0706				0.0758	0.0669	0.0623	0.0572		0.0543		0.0882	0.0795		0.0337
P89N		0.0623	0.0689	0.069				0.0651		0.0553	0.059	0.054		0.0404	0.0796		0.0807	0.0631
I110G		0.0674			0.0585	0.0286	0.0625	0.0484		0.0582	0.0564	0.0469	0.0502			0.0591	0.0574	0.0501
N116S		0.0727	0.0648			0.0663		0.075		0.0673	0.0754		0.0673				0.0772	
S124P		0.0538	0.0502	0.0864		0.0659	0.0819			0.0675	0.0767	0.0632	0.0787			0.0804	0.0829	
T132I		0.0602	0.0625	0.0764	0.0601	0.0704	0.0804	0.0602		0.0674		0.064	0.116			0.0676	0.0653	
P134G		0.0569	0.059	0.0753	0.028		0.0628	0.0718	0.0425		0.0594	0.0312				0.0388	0.0478	
W141A		0.0476	0.0665	0.0668		0.061		0.0633		0.0591	0.0575	0.0591	0.0616		0.0604	0.0344	0.0552	0.0567
Q146K		0.0622	0.0609	0.074	0.0691			0.0741	0.0811	0.0695	0.067	0.0669	0.0765	0.0744		0.0788	0.0765	0.0652
K148Q		0.0609	0.0768	0.0714			0.0909	0.0838	0.0757	0.0608	0.103		0.0712		0.0876	0.0767	0.0747	
K148R		0.0582						0.089	0.0719	0.051			0.0656					
V157S		0.0584	0.0626	0.0626	0.0784	0.0367	0.0697		0.0605	0.0561	0.0523	0.0569	0.0433				0.0666	0.0492
G162P		0.0541	0.0417	0.0458	0.0551	0.0524		0.0783	0.0742	0.0551	0.0586		0.0401			0.0507	0.0529	0.0427
G166M		0.053	0.0322	0.036		0.0469	0.0632	0.0487	0.0499		0.0425	0.0848	0.035		0.025		0.049	0.0546
I167A		0.0683		0.043		0.0525	0.0558		0.0385	0.0594	0.0549	0.0535			0.0575			0.0461
S169W		0.0562	0.0665	0.061			0.0634	0.0556		0.0589	0.0646			0.0641				0.0676
K185G		0.0605	0.0635	0.123	0.0676	0.0741	0.107	0.0762		0.0602	0.0412	0.0965				0.102		0.066
L191K		0.0562	0.0389	0.0645		0.0483	0.0601	0.0565	0.0556	0.0469	0.0568	0.0572	0.0588	0.0685	0.0516	0.0568	0.0515	0.059
Q197D		0.0577		0.0931	0.0647	0.0643	0.0703	0.0701		0.0714	0.0692	0.0571	0.0646			0.0723		
Q234N		0.0622	0.0683	0.0677		0.0661	0.0711	0.0725	0.0893	0.0696	0.0626	0.0757	0.0655	0.0771	0.093		0.0823	0.0727
I36W			0.075	0.0671	0.0727	0.0702		0.0627	0.0639	0.0622	0.0534	0.0625	0.0488	0.0564	0.072	0.0682	0.0653	0.0694
R50H			0.0467		0.0762	0.0768		0.0536			0.0599	0.0442				0.0968	0.052	
Q151M			0.0503	0.0757		0.0751		0.0485		0.0483	0.0637	0.0683	0.0791		0.0886	0.0811	0.0252	0.051
S127K				0.0327	0.0408	0.0754				0.0553					0.133		0.0739	0.0695
